# The campaign covered roughly 310,000 compounds. About 2,200 (0.71%) showed an effect of 50% or more. The effect is printed as a negative number. The list shows a part of the results.
# Biological target: human ether-à-go-go-related gene (hERG) potassium channel (human, UniProt Q12809)
# Experiment: primary screen, population patch clamp on CHO cells stably expressing hERG
# Sequence of human ether-à-go-go-related gene (hERG) potassium channel (Q12809 whole entry, looked up): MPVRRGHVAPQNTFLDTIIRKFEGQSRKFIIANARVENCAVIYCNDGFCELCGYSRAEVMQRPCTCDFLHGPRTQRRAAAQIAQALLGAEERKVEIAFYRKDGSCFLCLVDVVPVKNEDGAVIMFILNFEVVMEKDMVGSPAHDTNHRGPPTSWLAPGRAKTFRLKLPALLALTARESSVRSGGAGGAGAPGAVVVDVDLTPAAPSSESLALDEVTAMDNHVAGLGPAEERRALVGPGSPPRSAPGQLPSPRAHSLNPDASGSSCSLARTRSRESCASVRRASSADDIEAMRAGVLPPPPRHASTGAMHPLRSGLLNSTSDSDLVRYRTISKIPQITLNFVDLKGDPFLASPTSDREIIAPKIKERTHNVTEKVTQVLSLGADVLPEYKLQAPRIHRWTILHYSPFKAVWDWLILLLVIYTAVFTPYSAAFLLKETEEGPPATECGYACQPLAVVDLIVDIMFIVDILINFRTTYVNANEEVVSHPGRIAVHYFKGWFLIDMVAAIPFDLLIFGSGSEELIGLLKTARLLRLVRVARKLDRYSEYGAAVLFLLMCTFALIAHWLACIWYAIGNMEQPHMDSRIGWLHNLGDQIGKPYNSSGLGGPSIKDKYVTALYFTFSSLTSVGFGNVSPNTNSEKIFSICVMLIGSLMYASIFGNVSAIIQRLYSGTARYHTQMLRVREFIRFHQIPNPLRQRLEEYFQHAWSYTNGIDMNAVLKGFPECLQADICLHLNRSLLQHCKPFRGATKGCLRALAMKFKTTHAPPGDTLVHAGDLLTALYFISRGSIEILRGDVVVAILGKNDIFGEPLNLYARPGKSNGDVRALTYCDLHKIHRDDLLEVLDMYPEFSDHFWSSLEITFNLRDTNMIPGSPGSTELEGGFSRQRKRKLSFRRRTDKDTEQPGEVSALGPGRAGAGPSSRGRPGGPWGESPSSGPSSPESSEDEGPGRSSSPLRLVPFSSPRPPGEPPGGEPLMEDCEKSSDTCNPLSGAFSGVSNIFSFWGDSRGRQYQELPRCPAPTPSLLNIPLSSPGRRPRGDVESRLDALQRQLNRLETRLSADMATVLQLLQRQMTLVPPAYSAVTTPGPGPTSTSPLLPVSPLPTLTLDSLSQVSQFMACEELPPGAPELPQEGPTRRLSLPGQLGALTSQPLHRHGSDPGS
row,Compound,"hERG current change (%, negative = inhibition) at 1uM [%]"
1,CCCCCn1c(N)c(C#N)c2nc3ccccc3nc21,-4.34
2,Cc1cccc(C(C(=O)NC2CCCC2)N(C(=O)c2csnn2)C2CCCC2)c1 (stereo not drawn),4.1
3,CCCCCCCCn1c(=O)c(C(=O)OCC)c(O)c2ccccc21,12.8
4,COc1ccc2c3n(nc2c1)CCN=C3c1ccc(Cl)cc1,18.9
5,CCN(CC)C(=O)c1sc(NC(=O)c2cc(-c3ccc(C)s3)nc3ccccc23)c(C(=O)OC)c1C,9.3
6,CC(OC(=O)C1=Cc2ccccc2OC1)C(=O)NC1CCCC1 (stereo not drawn),3.09
7,CC1(C)Cc2c(C#N)c(N3CCN(C(=O)c4ccccc4Cl)CC3)nc(-c3ccco3)c2CS1,2.36
8,COc1ccc(N(C(=O)CCl)C(C)(C(=O)Nc2c(C)cccc2C)c2ccccn2)cc1 (stereo not drawn),14.9
9,O=C(c1cccc(C(F)(F)F)c1)N1CCCC1,8.42
10,CCCCN=Cc1c(O)n(-c2c(C)cc(C)cc2C)c(=O)[nH]c1=O,-17.4
11,COc1ccc(N2CCN(C(=O)CNS(=O)(=O)c3ccc(C)c(C)c3)CC2)cc1,4.24
12,O=c1cc2c(nn1Cc1cccc(Cl)c1)-c1ccccc1CC2,2.03
13,COc1ccc(CCNC(=O)CNS(=O)(=O)c2ccc(Br)s2)cc1OC,1.45
14,CCC(C)OC(=O)n1ccc(C(=O)Nc2nccs2)n1 (stereo not drawn),-8.67
15,CCCCn1c(O)c(C=NC2CCCCC2N)c(=O)[nH]c1=O (stereo not drawn),5.96
16,O=C(N/N=C/c1sc(N2CCOCC2)nc1-c1ccccc1)c1ccc(O)cc1,0.833
17,COc1ccccc1OCc1ccc(C(=O)Nc2cc(OC)c(OC)c(OC)c2)o1,10.7
18,COc1ccc(NC(=O)C(Sc2nnc3ccccn23)c2ccccc2)cc1Cl (stereo not drawn),13
19,CC1CN(Cc2nc3c(c(=O)[nH]c(=O)n3C)n2CCCc2ccccc2)CC(C)O1 (stereo not drawn),-2.44

row,Compound,"hERG current change (%, negative = inhibition) at 1uM [%]"
1,Cc1ccc(/C=C/C(=O)Nc2ccccc2C(N)=O)cc1,9.91
2,CCOC(=O)/C=C/C(=O)OCC(=O)NC(c1ccccc1)c1ccccc1,7.48
3,Cc1nc2c(oc3ccccc32)c(=O)o1,6.33
4,CCOc1ccccc1NC(=O)CSCC(=O)Nc1ccccc1,3.87
5,CC(C)(C)c1cc(C(F)(F)F)nc(SCCCNC(=O)c2ccco2)n1,8.11
6,CCOc1ccccc1-n1nnnc1SCc1nc2ccccc2s1,5.79
7,Cc1ccc2nc(NC(=O)c3ccc(Cn4cc(Cl)cn4)o3)sc2c1,13.5
8,COc1ccc(S(=O)(=O)N2CCCCCC2)cc1C(=O)N1CCN(c2ccccc2O)CC1,-4.41
9,COc1ccc(N(C(=O)c2ccco2)S(=O)(=O)c2cccs2)cc1,16
10,CCn1c(N2CCN(CC(=O)c3c[nH]c4ccccc34)CC2)nc2c1c(=O)[nH]c(=O)n2C,-3.12
11,CCOc1ccc(C2C(C#N)=C(N)N(N(C)C)C3=C2C(=O)CC(C)(C)C3)cc1 (stereo not drawn),7.08
12,Cc1ccc(/C=C/C(=O)O)cc1S(=O)(=O)N1CCc2ccccc21,10.2
13,O=C(NCc1cccnc1)Nc1cccc(NC(=O)NCc2cccnc2)c1F,4.47
14,COc1ccc(OCC(=O)NNC(=O)c2ccc(-c3ccccc3)cc2)cc1,13
15,Cn1c(=O)[nH]c(=O)c2c1nc(NCCCO)n2Cc1ccc(F)cc1,12.2
16,CCN(CC)S(=O)(=O)c1ccc(-c2ccc(S(=O)(=O)N(CC)CC)cc2)cc1,6.99
17,Cc1nc(CSc2nc3[nH]ncc3c(=O)n2-c2ccccc2)cs1,9.11
18,O=C(CSc1nnc2scc(-c3ccccc3)n12)Nc1ccc2c(c1)OCCO2,6.45
19,COc1ccc(Nc2ncnc3c2cnn3Cc2ccccc2)cc1OC,2.42

row,Compound,"hERG current change (%, negative = inhibition) at 1uM [%]"
1,COc1cc(C)ccc1OCCOc1c(C)cc(Cl)cc1Cl,11.8
2,CCOc1cc(-c2nc3ccccn3c2NCC2CCCO2)ccc1O (stereo not drawn),-8.77
3,COc1ccc(NC(=O)N2CCCC2)cc1OC,-3.37
4,Cc1cc(C(=O)CC#N)c(C)n1CC(F)(F)F,-0.956
5,CCOC(=O)C(Cc1ccccc1)C(=O)Nc1cccc(C)c1 (stereo not drawn),14.3
6,COc1ccc(C2=NOC(C(=O)Nc3ccc4c(c3)OCCO4)C2)c(OC)c1 (stereo not drawn),4.25
7,COC(CNC(=O)c1ccc(CS(=O)(=O)c2ccccc2)o1)OC,6.89
8,CN(C)S(=O)(=O)c1ccc2nnn(OCC(=O)NC34CC5CC(CC(C5)C3)C4)c2c1,-1.32
9,Cc1noc(C)c1C(=O)N1CCCC1,-0.0053
10,c1cncc(CSc2nnc3ccc(-c4ccco4)nn23)c1,13.6
11,COc1ccc(N2C(=O)CCC2=O)cc1,16.6
12,O=C(NCCc1ccccc1)C1CCCN1S(=O)(=O)c1ccccc1 (stereo not drawn),-0.554
13,COc1ccc(N2CC(C(=O)NCCc3c[nH]c4ccccc34)CC2=O)cc1 (stereo not drawn),3.42
14,CCCn1c(C)cc(/C=C(\C#N)C(=O)OCC(=O)Nc2cccc(S(N)(=O)=O)c2)c1C,4.62
15,COc1cccc(/C=N/n2c(CO)nc3ccccc32)c1OC,21.1
16,COc1ccc(N2CCN(C(c3cccs3)C(C)NS(=O)(=O)c3ccccc3)CC2)cc1 (stereo not drawn),1.4
17,CC1CCN(C(=O)CN2C(=O)NC3(CCC(C)CC3)C2=O)CC1 (stereo not drawn),-5.46
18,COCCCNC(=S)NNC(=O)c1csc(C)n1,16.4
19,O=C(Nc1ccnn1C1CCN(Cc2ccc(OC(F)F)cc2)CC1)C1CCCC1,-81.5

# Source: article PMC4336329 (PLoS ONE, 2015)
